This is one part of the list. The data describe in vitro nicking of single-stranded DNA by Rep domains at 3 µM enzyme and 37 °C for 1 h; the strands have 90 letters, of which the middle is given. Uncut reads are compared with the no-enzyme pool on a log2 scale; uncut sequences lie near 0, cut ones below; no hit call is given. Because reads are shares of a total, they shift together; values above 0 arise when much of the pool is cut.
system: T1, Rep nickase domain of tomato yellow leaf curl virus; experiment: uncleaved DNA left, log2 of reads against the no-enzyme library (log2 ratio); higher = less cleavage (more negative = more Rep cleavage of the k-mer); sequences stand for … in CTCGTCCG…ACCGGAGA
T1 sequence (protein, residues 1-136, tag omitted): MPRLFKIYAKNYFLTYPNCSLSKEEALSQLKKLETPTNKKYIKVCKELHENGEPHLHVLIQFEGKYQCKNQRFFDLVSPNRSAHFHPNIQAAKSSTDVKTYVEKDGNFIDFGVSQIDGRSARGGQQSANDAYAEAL
Procedure: (§1)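 A pool of 90-nt single-stranded DNAs with seven random bases just before the constant AC of the nick site (name = the seven bases) was cut by 3 µM recombinant His6-SUMO-tagged Rep nickase domain (300 nM DNA, 50 mM HEPES pH 8.0, 50 mM NaCl, 1 mM MnCl2, 1 h, 37 °C, three replicates). Uncut DNA was amplified and sequenced.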

Sequence | uncleaved DNA left (log2)
ATATCCG | -0.163
GATGGCA | 0.0241
GATTCGC | 0.0482
ACGTAGT | -0.169
AGCCCAA | 0.0266
CGCATGA | -0.0131
CCAAGGT | 0.0202
GAGCATT | 0.112
AGCGGCT | 0.0629
GTAGCGG | -0.206
TAAACAC | 0.0218
CCGGATG | -0.0712
TGGGATT | 0.0534
CAAATGT | 0.0138
TCTGGTT | -0.0567
ACGATAG | -0.0498
TGCCACG | -0.00599
GTACGCA | -0.0555
AGTCAAA | 0.0533
TCGAAGA | -0.0241

Sequence | uncleaved DNA left (log2)
TAGGTGC | 0.00124
TTTTCAC | 0.0171
GATAAAT | 0.141
AGCCACG | -0.0901
GTCACCT | -0.0267
ATGAAGC | 0.157
TAGCACC | 0.0867
AGCAGAA | 0.017
GTAGATT | -0.0252
CCAGTTT | -0.108
GTGTATA | 0.0615
GACGGGG | 0.00537
AATGCCG | -0.0646
CTGATCG | -0.149
TAAGCTT | -0.18
ATTGTGC | 0.0798
GCATTAG | -0.0979
AGGGAGT | -0.0603
GGTACAG | 0.0483
CGCTGGT | -0.188

system: T2, Rep nickase domain of wheat dwarf virus; experiment: as above
T2 sequence (protein, residues 1-137, tag omitted): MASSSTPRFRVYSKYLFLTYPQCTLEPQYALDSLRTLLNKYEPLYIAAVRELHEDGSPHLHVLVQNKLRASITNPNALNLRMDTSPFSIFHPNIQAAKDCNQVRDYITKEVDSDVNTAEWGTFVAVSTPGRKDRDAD
Procedure: as §1

Sequence | uncleaved DNA left (log2)
ATATCCG | -0.057
GATGGCA | 0.0658
GATTCGC | 0.00563
ACGTAGT | -0.0889
AGCCCAA | 0.143
CGCATGA | -0.00653
CCAAGGT | 0.111
GAGCATT | 0.203
AGCGGCT | 0.19
GTAGCGG | 0.0691
TAAACAC | -0.671
CCGGATG | 0.0935
TGGGATT | 0.0557
CAAATGT | -0.367
TCTGGTT | -0.142
ACGATAG | -0.114
TGCCACG | -0.0365
GTACGCA | -0.0162
AGTCAAA | 0.165
TCGAAGA | -0.0465

Sequence | uncleaved DNA left (log2)
TAGGTGC | -0.227
TTTTCAC | 0.0662
GATAAAT | 0.195
AGCCACG | -0.00297
GTCACCT | 0.0709
ATGAAGC | -0.0658
TAGCACC | 0.0717
AGCAGAA | 0.0738
GTAGATT | 0.0588
CCAGTTT | -0.223
GTGTATA | -0.0213
GACGGGG | 0.14
AATGCCG | -0.127
CTGATCG | -0.0947
TAAGCTT | -2.32
ATTGTGC | -0.131
GCATTAG | -0.109
AGGGAGT | 0.071
GGTACAG | 0.179
CGCTGGT | -0.0655

From the supplement of paper PMC7826260
